We go through ten molecules from the antibiotic and cytotoxicity screens of Wong et al. (2023).

Assay [1] deals with HSkMC (human skeletal muscle cells). The experiment in a line: cytotoxicity call (relative viability < 0.9). As to conditions: 10 µM.
In assay [2] the test system is HepG2. The experiment in a line: cytotoxicity call (relative viability < 0.9). Conditions: 10 µM.
Assay [3] relates to S. aureus RN4220. Briefly: growth inhibition call (relative growth <= 0.2). As to conditions: 50 µM.

Each structure is given as a SMILES string. Some of the results follow.

Regarding `CCCN(CCC)S(=O)(=O)c1ccc(C(=O)O)cc1`, the cytotoxicity call in assay [1] and in assay [2] was “inactive” throughout. Moreover, in assay [3], the growth inhibition call is “inactive”.
In the case of `CN(C)CCCNC(=O)C[C@H]1CC[C@H]2[C@@H](COc3ccc(NC(=O)c4ccccc4F)cc3C(=O)N2C)O1`, the cytotoxicity call in assay [1] and in assay [2] was “inactive” each time. Moreover, the growth inhibition call in assay [3] was “inactive”.
For `Cc1ccc(S(=O)(=O)N(C)C[C@@H]2Oc3ccc(NC(=O)CCN4CCOCC4)cc3CC(=O)N([C@@H](C)CO)C[C@@H]2C)cc1`, the cytotoxicity call in assay [1] and in assay [2] was “inactive” in each case. For the same molecule, the growth inhibition call in assay [3] was “inactive”.
Take `COc1ccc2c3c([nH]c2c1)[C@@H](CO)N(C[C@]13CCN(CC1)Cc1ccc(cc1)F)C(=O)Nc1ccc(cc1)F`: the cytotoxicity call in assay [1] and in assay [2] was “active” throughout. The growth inhibition call in assay [3] was “active”.
In the case of `C[C@@H]1CCCCO[C@H](CN(C)S(=O)(=O)c2cccs2)[C@@H](C)CN([C@@H](C)CO)C(=O)c2cc(NC(=O)CCC(F)(F)F)ccc2O1`, the cytotoxicity call in assay [1] and in assay [2] was “inactive” throughout. Also, the growth inhibition call in assay [3] was “inactive”.
Turning to `CNC(=O)Cn1cc(N)cn1`, the cytotoxicity call in assay [1] and in assay [2] was “inactive” throughout. Moreover, the growth inhibition call in assay [3] is “inactive”.
Regarding `COc1ccc(NC(=O)N(C)C[C@@H]2OCCCC[C@H](C)Oc3ccc(NS(=O)(=O)c4c(C)noc4C)cc3C(=O)N([C@H](C)CO)C[C@@H]2C)cc1`, the cytotoxicity call in assay [1] and in assay [2] was “inactive” each time. For the same molecule, in assay [3], the growth inhibition call was “inactive”.
Regarding `COc1ccc(S(=O)(=O)N(C)C[C@@H]2OCCCC[C@@H](C)Oc3ccc(NC(=O)c4ccccc4)cc3C(=O)N([C@H](C)CO)C[C@@H]2C)cc1`, the cytotoxicity call in assay [1] and in assay [2] was “inactive” each time. In addition, in assay [3], the growth inhibition call is “inactive”.
`C[C@H]1CCCCO[C@@H](CN(C)C(=O)Cc2ccccc2)[C@@H](C)CN([C@@H](C)CO)C(=O)c2cc(NC(=O)c3ccccc3)ccc2O1`: the cytotoxicity call in assay [1] and in assay [2] was “inactive” each time. In assay [3], the growth inhibition call was “inactive”.
Consider `Cc1noc(C)c1S(=O)(=O)Nc1cccc2c1O[C@@H](CN(C)Cc1ccc(-c3ccccc3)cc1)[C@@H](C)CN([C@H](C)CO)C2=O`, for which the cytotoxicity call in assay [1] and in assay [2] was “inactive” throughout. Also, the growth inhibition call in assay [3] is “inactive”.
